# Measurements as given in PubChem BioAssay AID488969 (Vanderbilt High Throughput Screening Facility, 2010).
# The full ranking holds about 110,000 compounds; the median of “z-score” is about -0.1, and the highest 2% start at about 2. Some of the results follow.
# Target: Metabotropic glutamate receptor 8 (Rattus norvegicus) (UniProt P70579)
# Assay: rat mGluR8 modulators via GIRK flux, primary screen, cell-based, thallium flux, HTS (AID 488969)
# Details: HEK293 rat mGluR8, GIRK (G protein-gated inwardly rectifying potassium channel) thallium flux, FluoZin2; at 10 µM; stronger effect = higher value; submaximal glutamate (EC20) added with thallium
# Sequence of UniProt P70579 (P70579 whole entry, looked up): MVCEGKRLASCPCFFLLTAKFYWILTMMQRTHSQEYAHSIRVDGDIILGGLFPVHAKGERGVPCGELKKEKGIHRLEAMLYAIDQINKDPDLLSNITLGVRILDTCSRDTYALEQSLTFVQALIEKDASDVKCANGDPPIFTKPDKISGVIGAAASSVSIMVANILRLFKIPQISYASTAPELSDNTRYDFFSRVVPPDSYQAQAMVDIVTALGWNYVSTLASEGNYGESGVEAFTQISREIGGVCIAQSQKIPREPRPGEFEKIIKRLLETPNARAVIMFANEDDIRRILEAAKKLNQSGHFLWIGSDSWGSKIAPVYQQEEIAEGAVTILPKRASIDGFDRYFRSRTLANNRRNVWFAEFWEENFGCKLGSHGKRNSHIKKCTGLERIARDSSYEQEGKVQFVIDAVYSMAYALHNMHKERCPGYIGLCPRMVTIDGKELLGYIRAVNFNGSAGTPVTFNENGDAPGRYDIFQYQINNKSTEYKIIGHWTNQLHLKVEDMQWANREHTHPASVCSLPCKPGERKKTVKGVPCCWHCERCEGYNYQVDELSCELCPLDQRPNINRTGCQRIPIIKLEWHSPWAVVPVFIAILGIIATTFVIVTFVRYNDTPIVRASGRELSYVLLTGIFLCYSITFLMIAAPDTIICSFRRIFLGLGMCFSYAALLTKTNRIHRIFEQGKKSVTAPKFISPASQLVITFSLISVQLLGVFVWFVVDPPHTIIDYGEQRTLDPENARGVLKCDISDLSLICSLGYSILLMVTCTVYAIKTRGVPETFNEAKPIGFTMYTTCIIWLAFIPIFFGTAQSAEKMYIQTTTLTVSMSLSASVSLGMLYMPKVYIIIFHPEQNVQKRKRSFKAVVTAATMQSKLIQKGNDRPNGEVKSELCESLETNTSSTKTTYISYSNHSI
row,SMILES,z-score
1,O=C(c1ccco1)N1CCN(C(=O)C(c2ccccc2)c2ccccc2)CC1,0.626
2,Cc1cccc(N(C(=O)C(F)(F)F)C(C(=O)NC2CCCCC2)c2cccs2)c1 (centres undefined),-0.00957
3,O=S(=O)(c1ccc(NC(=S)N/N=C/c2ccc(N3CCOCC3)cc2)cc1)N1CCOCC1,-0.0983
4,CC(C)OC(=O)CSc1nc2ncc(Cl)cc2[nH]1,-0.0878
5,CCC(=O)OC1c2ccccc2C(=O)N1Cc1ccccc1 (centres undefined),-0.264
6,CCCc1nnc(NC(=O)CNc2ccc(F)cc2)s1,0.0228
7,O=C(N1CCOCC1)C12CCC3CC(CC(C3)C1)C2,-0.494
8,CCC(C)NCCOc1cccc(Br)c1 (centres undefined),-0.179
9,COC(=O)c1sc(NC(=O)c2ccoc2C)nc1C,0.0344
10,CCCn1cnc2c(c1=O)c1nc3ccccc3nc1n2CCC1=CCCCC1,0.434
11,O=C(c1cc([N+](=O)[O-])ccc1Cl)N1CCN(c2ccc(F)cc2)CC1,0.0701
12,Cc1oc(=O)c(NC(=O)c2ccc(Cl)cc2)cc1C(=O)c1ccccc1,-0.0857
13,COc1ccccc1NC(=O)Cn1cncc1-c1ccc([N+](=O)[O-])cc1,-0.494
14,O=C1C(C=NCCCN2CCOCC2)=C(O)c2ccccc21,0.436
15,CC(=O)Nc1cc(C(=O)N2CCc3ccccc3C2)ccc1Sc1ccc(C)cc1,-0.769
16,COCCn1nnnc1C(c1ccc(OC)cc1)N1CCN(c2ccccc2F)CC1 (centres undefined),-0.282
17,COc1ccc(CCNC(=O)C2CC(=O)N(C3CCCCCCC3)C2)cc1OC (centres undefined),-0.284
18,CN(C)c1ccc(/C=N/NC(=O)c2ccc(Cl)cc2)cc1,-0.158
19,Cc1ccc(C(=O)N2CCN(C3c4cccc5cccc(c45)C3NS(=O)(=O)c3ccccc3)CC2)cc1 (centres undefined),-0.141
20,O=C(NC(NCc1cccnc1)C(Cl)(Cl)Cl)c1cccc2ccccc12 (centres undefined),-0.344
21,O=S1(=O)CCC(NC(=S)NC2CCS(=O)(=O)C2)C1 (centres undefined),-0.357
22,COc1cccc(S(=O)(=O)Nc2ccc(C(=O)N3CCOCC3)cc2)c1,0.0144
23,COc1cc(S(=O)(=O)Nc2cccc(C)c2)ccc1N=Cc1c(C)[nH]n(-c2ccccc2)c1=O,-0.226
24,O=C(CCc1ccc(S(=O)(=O)N2CCOCC2)cc1)Nc1cc(Cl)ccc1N1CCOCC1,0.154
25,O=C(c1cc(-n2cnnc2)ccc1Cl)N1CCN(c2nc(-c3ccccc3)cs2)CC1,-0.347
26,Cc1cccn2cc(CCNC(=O)c3ccc(Br)o3)nc12,-0.156
27,COc1ccc(C2(CNC(=O)c3ccc(OC)c([N+](=O)[O-])c3)CCCCC2)cc1OC,-0.559

row,SMILES,z-score
1,CCCn1c(=O)n(C)c(=O)c2c(SCC(=O)NCc3ccco3)nc(C3CC3)nc21,-0.234
2,COC(=O)c1ccccc1NC(=O)C(CCS(C)(=O)=O)NC(C)=O (centres undefined),0.381
3,COC(=O)c1ccc(NC(=O)C(=O)N2CCN(C(=S)Nc3cccc(C)c3C)CC2)cc1,-0.146
4,CCCCCC(=O)Nc1ccc(N2CCN(C(=O)CCC)CC2)cc1,0.155
5,CCCc1cc(C(=O)NCc2ccc(OC)cc2)no1,-0.288
6,COc1cccc(C2=NC(C)(C)NC(c3ccccc3O)C2)c1 (centres undefined),0.107
7,CCOC(=O)N1CCN(C(=O)c2oc3ccc(S(=O)(=O)N4CC(C)CC(C)C4)cc3c2C)CC1 (centres undefined),-2.63
8,CC(=O)Nc1ccc(NC(=O)CCCCCN2C(=O)c3ccccc3C2=O)cc1,-0.643
9,OC(COC(c1ccccc1)c1ccccc1)CN1CCCCC1 (centres undefined),0.783
10,C=CCn1c(C(C)NC(=O)c2ccccc2)n[nH]c1=S (centres undefined),-0.78
11,COC(=O)/C(=C\Nc1ccc(Cl)cc1Cl)NC(=O)c1ccc(Cl)cc1Cl,-0.0181
12,COc1ccc(CCN2C(=O)c3[nH]nc(-c4ccccc4O)c3C2c2ccccc2)cc1OC (centres undefined),-0.0134
13,O=C(CN1CCN(c2ccccc2O)CC1)Nc1ccc2c(c1)CCC2,-0.114
14,COc1ccc(NC(=O)C(=O)N/N=C/c2cc(C)n(-c3cccc(Cl)c3Cl)c2C)c(OC)c1,-0.134
15,O=C(COC(=O)c1ccc2ncsc2c1)Nc1ncc(Cl)cc1Cl,0.0132
16,O=C(CSc1ccc2c(c1)OCCO2)Nc1ccc2c(c1)OCO2,0.334
17,CCOC(=O)c1sc2nc[nH]c(=O)c2c1C,-0.318
18,O=c1/c(=C/c2ccccn2)sc2n1CN(c1ccccc1)CN=2,-0.675
19,COc1ccc2c(c1)-c1ccccc1S(=O)(=O)N2C(C)=O,-0.33
20,Cc1cccc(Oc2ccc(C(=O)NC3CCSC3=O)cn2)c1C (centres undefined),0.251
21,CCOC(=O)CC1(C)NC(=O)c2c(C)sc(C(=O)OCC)c2N1 (centres undefined),-0.0827
22,Cc1cc(C)nc(NS(=O)(=O)c2ccc(NC(=O)C3(c4ccc([N+](=O)[O-])cc4)CCCC3)cc2)n1,-0.0865
23,O=C(c1ccco1)N1CCN(C(=O)c2oc(=O)c3ccccc3c2-c2ccccc2)CC1,0.834
24,CCOC(=O)N1CCN(C(=O)CNC(=O)c2nn(-c3ccc(OC)cc3)c(=O)c3ccccc23)CC1,-0.19
25,Cc1ccc(CN2CCNC(=O)C2CC(=O)O)o1 (centres undefined),-0.0906
26,CCOCCCN(Cc1ccco1)C(=O)c1cc2c(=O)[nH]c3ccc(C)cc3c2s1,-0.548
27,CCC(C)c1ccc(NC(=S)Nc2ccc(OC)cc2)cc1 (centres undefined),0.436
